Structures are written as SMILES. Screen size: about 110,000 compounds; about 230 (0.21%) showed an effect of 50% or more. This is one part of the list.

Here are results for 64 molecules from article PMC6919601, “Identification of Plasmodium dipeptidyl aminopeptidase allosteric inhibitors by high throughput screening” (PLoS ONE, 2019).
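Also: 30 min substrate incubation versus DMSO and 10 µM JCP410 controls.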

The target in this experiment is DPAP1 (Plasmodium falciparum, UniProt Q8IIJ9). Put plainly: primary screen, percent inhibition; read by cleavage of a fluorogenic dipeptide substrate; higher = more effect of the substance. Set-up: species or system P. falciparum D10 trophozoite lysates; single well.
DPAP1, sequence (Q8IIJ9 whole entry, looked up): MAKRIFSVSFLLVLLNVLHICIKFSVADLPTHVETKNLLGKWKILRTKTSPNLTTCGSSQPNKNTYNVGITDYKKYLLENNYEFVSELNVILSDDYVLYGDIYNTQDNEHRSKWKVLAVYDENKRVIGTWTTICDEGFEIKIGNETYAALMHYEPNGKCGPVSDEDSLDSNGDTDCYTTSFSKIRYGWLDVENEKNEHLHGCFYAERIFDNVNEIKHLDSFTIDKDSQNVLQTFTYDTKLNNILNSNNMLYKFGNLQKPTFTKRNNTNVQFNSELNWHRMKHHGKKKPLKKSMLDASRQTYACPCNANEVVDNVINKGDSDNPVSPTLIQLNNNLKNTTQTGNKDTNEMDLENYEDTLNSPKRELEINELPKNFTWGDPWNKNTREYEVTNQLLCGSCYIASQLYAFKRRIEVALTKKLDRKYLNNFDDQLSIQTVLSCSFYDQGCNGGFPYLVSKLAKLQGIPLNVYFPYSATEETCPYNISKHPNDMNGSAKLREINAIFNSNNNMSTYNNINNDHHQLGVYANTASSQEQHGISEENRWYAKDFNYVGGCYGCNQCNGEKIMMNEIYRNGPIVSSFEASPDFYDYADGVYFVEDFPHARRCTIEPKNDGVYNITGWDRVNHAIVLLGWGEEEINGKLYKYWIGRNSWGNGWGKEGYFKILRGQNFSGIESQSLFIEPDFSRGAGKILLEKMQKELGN
On to `CC1CC(C)CN(CCCNC(=O)C2CCCN(c3ncnc4c3nc3n4CCCCC3)C2)C1` (stereo not shown), for which the “% Inhibition @ 10 uM” value is recorded as 3.54%.
For the molecule `CC(C)(C)NC(=O)CC1Sc2ccccc2NC1=O` (stereo not shown), the “% Inhibition @ 10 uM” value is listed as -8.41%.
As for `NC(=O)C1CCN(CC2CCCCC2)CC1`, the “% Inhibition @ 10 uM” value is -3.42%.
Take `COC(=O)c1ccc(/C=C2\C=C(c3ccc(Cl)cc3)OC2=O)cc1`: the “% Inhibition @ 10 uM” value turned out to be 3.72%.
The result for `COc1ccc(CNc2cccc(SC)c2)c(OC)c1` reads -1.08%; that for `CCOC(=O)C1=C(N)OC2=C(C(=O)CC(C)(C)C2)C1c1ccc(C)cc1C` (stereo not shown), -4.35%.
The result for `CC(=O)Nc1ccc(NC(=O)c2ccc([N+](=O)[O-])cc2)cc1` reads -4.49%; that for `COCCNC(=O)CSc1c2c(nc3ccc(Cl)cc13)CCCC2`, -8.9%.
Under `C=CCc1cccc2cc(C(=O)Nc3ccc(C(=O)O)cc3)c(=O)oc12` stands 0.247%.
Regarding `Cc1oncc1C(=O)Nc1cccc2ccccc12`, the “% Inhibition @ 10 uM” value is recorded as -4.66%.
Consider `COc1ccc(-c2cc3c(=O)n(CC(=O)N4CCOCC4)ncn3n2)cc1`, for which the “% Inhibition @ 10 uM” value was -2.85%.
Under `CCOC(=O)c1cnc2c(C)cc(Cl)cc2c1NCCN(C)C` stands 5.37%; under `O=C(O)c1nc(-c2ccccc2)[nH]c1C(=O)O`, -1.29%; under `CN1CCN(Cc2ccc([N+](=O)[O-])o2)CC1`, 3.1%.
The result for `Oc1ccc(CN2CCN(Cc3ccccc3)CC2)cc1` reads 4.04%; that for `O=C(Nc1cccnc1Cl)c1cc2ccc3cccnc3c2[nH]1`, 2.77%.
On to `CSCCN1CCN(C(=O)CN2CCCC2=O)CC1`, for which the “% Inhibition @ 10 uM” value was -1.17%.
The result for `O=C1c2cccc([N+](=O)[O-])c2C(=O)N1Cc1ccccc1` reads 5.54%; that for `COc1ccc(C=C2C(=O)NC(=O)NC2=O)cc1OCc1ccc(Cl)cc1Cl`, -6.2%.
For the molecule `COc1ccc(CN2CCN(Cc3cc(OC)c(OC)cc3OC)CC2)cc1Br`, the “% Inhibition @ 10 uM” value was -11.6%.
Regarding `COCCCNC(=O)CSc1nc2ccsc2c(=O)n1CCc1ccc(Cl)cc1`, the “% Inhibition @ 10 uM” value is listed as 6.81%.
As to `Cc1sc2c(c1C)c(=O)n(CCc1ccccc1)c(=O)n2Cc1cc(=O)n2cc(Cl)ccc2n1`, the “% Inhibition @ 10 uM” value is 9.43%.
In the case of `COc1cc(O)ccc1C1CC(=O)Nc2c1c(=O)nc(SCc1cccc(C)c1)n2C` (stereo not shown), the “% Inhibition @ 10 uM” value came to 2.25%.
In the case of `O=C(c1cnn2c(C(F)(F)F)cc(-c3cccs3)nc12)N1CCOCC1`, the “% Inhibition @ 10 uM” value is listed as -0.519%.
Under `CC(C)OC(=O)c1c2c(n3cc4ccccc4cc13)C(=O)c1ccccc1C2=O` stands -1.18%; under `COc1ccc(NC(=O)c2c(F)c(F)c(C(=O)Nc3ccc(OC)cc3)c(F)c2F)cc1`, -2.87%.
Under `CCC(O)c1nc2ccccc2n1CCOc1ccccc1OC` (stereo not shown) stands 5.2%; under `CCCCN(CCNC(=O)c1nn(C)c2c1CS(=O)(=O)c1ccccc1-2)Cc1ccco1`, -6.34%; under `O=C(O)c1ccc2c(c1)C1C=CCC1C(C(=O)O)N2` (stereo not shown), 28.2%.
The result for `Cc1ccc2nc(-c3ccc(NC(=O)CN(c4ccc(F)cc4)S(C)(=O)=O)cc3)sc2c1` reads -2.67%.
`CCn1ncc(CN(C)C(=O)c2cc3nc(-c4ccc(C)c(C)c4)cc(C(F)(F)F)n3n2)c1C`: the “% Inhibition @ 10 uM” value worked out at 2.32%.
For the molecule `Cc1ccc(C)c(S(=O)(=O)NC(C)C(=O)Nc2ccccc2F)c1` (stereo not shown), the “% Inhibition @ 10 uM” value came out at 3.37%.
The result for `O=C(OCCc1ccccc1)c1ccc(-c2ccccc2)cc1` reads -0.969%; that for `O=C(CCSc1ccccc1)NCCc1ccccc1`, -4.68%.
The result for `O=C(NCc1ccco1)c1ccc(-n2cnc3cccnc32)cc1` reads 3.45%; that for `CCOc1ccccc1NC(=O)Nc1ccccc1`, -0.414%; that for `COC(=O)c1c(NC(=O)c2cccnc2)sc(C(=O)Nc2ccc(C)cc2C)c1C`, 1.39%.
Under `CC(=O)Nc1ccc(NC(=O)c2csc3ccccc23)cc1` stands -12%; under `N#CC1=C(N)Oc2[nH]nc(-c3ccccc3)c2C1c1ccccc1C(F)(F)F` (stereo not shown), -3.19%.
In the case of `COCCN1C(=O)c2oc3cc(C)c(C)cc3c(=O)c2C1c1ccc(F)cc1` (stereo not shown), the “% Inhibition @ 10 uM” value was -1.11%.
For the molecule `O=C1NC(=O)C(=Cc2cccc(F)c2)C(=O)N1`, the “% Inhibition @ 10 uM” value is given as -0.239%.
Under `COc1ccc(-n2cccc2/C=C2/C(=N)N3C(=NC2=O)SN=C3S(C)(=O)=O)cc1Cl` stands -5.22%.
In the case of `C=CCOc1c(Br)cc(C2C(C#N)=C(N)OC3=C2C(=O)CCC3)cc1OC` (stereo not shown), the “% Inhibition @ 10 uM” value was 4.61%.
The result for `COc1ccc(OC)c(N2C(=O)CC(Cc3ccc(C)cc3)C2=O)c1` (stereo not shown) reads 3.09%.
`N#Cc1c2ncnc(O)c2c2n1CCC2`: the “% Inhibition @ 10 uM” value is reported as -1.69%.
`O=C(Nc1nc2ccc(Br)cc2s1)c1c(O)nc2c(c1O)CCCC2`: the “% Inhibition @ 10 uM” value was 4.35%.
The result for `Cc1nnc(SCC(=O)N(C)C2CCCCC2)s1` reads 2.29%.
`Cc1cc2oc(C(=O)N3CCN(C)CC3)c(C)c2cc1C`: the “% Inhibition @ 10 uM” value is listed as -1.36%.
Under `O=C(Cc1noc2ccccc12)N1CCCCC1c1cccnc1` (stereo not shown) stands 10.8%; under `COc1ccc(C2=NN(S(C)(=O)=O)C(c3cccs3)C2)cc1` (stereo not shown), 0.381%; under `COc1cccc(C=C2C(=O)c3ccccc3C2=O)c1OC(C)C`, -1.6%.
As to `COCCNC(=O)Cn1nnc2sc3c(c2c1=O)CCCC3`, the “% Inhibition @ 10 uM” value turned out to be 0.758%.
In the case of `CC(C)C(NC(=O)c1ccc(C23CC4CC(CC(C4)C2)C3)cc1)C(=O)NCc1cccnc1` (stereo not shown), the “% Inhibition @ 10 uM” value was -1.73%.
For the molecule `COc1ccccc1NC1=C(Cl)C(=O)N(c2ccc(C)cc2C)C1=O`, the “% Inhibition @ 10 uM” value is recorded as -0.413%.
As for `Cc1c(C(=O)Nc2ccccc2)cccc1[N+](=O)[O-]`, the “% Inhibition @ 10 uM” value is -2.6%.
Consider `O=C(COc1ccc(Cl)cc1Cl)Nc1cccc(Cl)c1`, for which the “% Inhibition @ 10 uM” value is -7.49%.
The result for `O=C(c1ccc(CNS(=O)(=O)c2cccc(Cl)c2)cc1)N1CCN(c2ccccc2F)CC1` reads -3.41%; that for `O=C(O)c1ccccc1C(=O)Nc1ccc(S(=O)(=O)N2CCCC2)cc1`, -3.85%; that for `CC1CC(N(C(=O)C2CC2)c2ccccc2)c2ccccc2N1C(=O)C1CC1` (stereo not shown), -1.36%.
Turning to `O=C1C(Cl)=C(Nc2ccc(F)cc2)C(=O)N1Cc1ccccc1`, the “% Inhibition @ 10 uM” value was -0.305%.
The result for `C=CCn1c(Oc2ccc(C=O)cc2OCC)nc2c1c(=O)n(C)c(=O)n2C` reads 0.708%; that for `CC(=O)NC1=NC(=O)/C(=C/c2ccccc2)N1C`, -3.26%; that for `Cc1nnc(C)c2c(C)n(NC(=O)c3ccncc3)c(C)c12`, 0.884%.
For the molecule `Cc1ccccc1Cn1c(CCNC(=O)c2ccco2)nc2ccccc21`, the “% Inhibition @ 10 uM” value came to 0.366%.
